Binding signal (normalized occupancy) data for 94 sequences are collected here from article PMC4242493.

The list shows a part of the results. The list includes weakly bound sequences.

This experiment addresses MaxL homodimer (UniProt P61244). Put plainly: universal protein-binding microarray (PBM). The conditions noted are these: PBS-based mixture, 10 nM His-tagged protein dimer, 2% milk, 200 ng/uL BSA, 50 ng/uL salmon testes DNA, 0.02% TX-100; detection with Alexa 488 anti-His …; high values mean tight binding; most listed sequences are background and not binding sites; double strand, one strand shown.
UniProt P61244, sequence (P61244 whole entry): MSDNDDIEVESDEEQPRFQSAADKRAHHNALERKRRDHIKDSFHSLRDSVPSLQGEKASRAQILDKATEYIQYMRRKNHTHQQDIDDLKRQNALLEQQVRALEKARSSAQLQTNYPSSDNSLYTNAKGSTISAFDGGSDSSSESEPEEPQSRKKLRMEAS
With GAGCTTCA, the binding signal (normalized occupancy) was 0.0742. GGCCTATA: the binding signal (normalized occupancy) turned out to be 0.0727. With GAGCAACA, the binding signal (normalized occupancy) stood at 0.0697. Next, GAAGTAGA: 0.0735; CTAGTCGC: 0.0707; CAACTTGC: 0.0748. Take CGGGGCAC: the binding signal (normalized occupancy) was found to be 0.0781. On to CGCAGCTA, for which the binding signal (normalized occupancy) came out at 0.0652. For the sequence AGTTCTCA, the binding signal (normalized occupancy) was 0.0673. Next, CAATGCAA: 0.0789; CTTTTGGA: 0.0744. With GATGCATA, the binding signal (normalized occupancy) was determined as 0.0837. With AGTACACT, the binding signal (normalized occupancy) was 0.0755. Next, CGAGAGAC: 0.0744; GTTGAGCA: 0.0734.

On to CATGTCTA, for which the binding signal (normalized occupancy) stood at 0.0854.

On to AGGATACG, for which the binding signal (normalized occupancy) was 0.0802. Turning to ACTGCACT, the binding signal (normalized occupancy) came to 0.0733. Turning to CAGCGAAG, the binding signal (normalized occupancy) was 0.0648.

As to CGCCCACC, the binding signal (normalized occupancy) was found to be 0.0761. Regarding CAACCTCG, the binding signal (normalized occupancy) worked out at 0.0756. With CCACGAAG, the binding signal (normalized occupancy) came to 0.0767.

Take GACTCGCA: the binding signal (normalized occupancy) turned out to be 0.0748. Consider CGTACCAC, for which the binding signal (normalized occupancy) came to 0.0807.

Take CTCTTTAC: the binding signal (normalized occupancy) worked out at 0.0768.

Turning to CGCCCCCG, the binding signal (normalized occupancy) was 0.0707. AGTAGCAC: the binding signal (normalized occupancy) was 0.0735. For AATGGGAA, the binding signal (normalized occupancy) is 0.0775. In the case of ACCTCCGA, the binding signal (normalized occupancy) was found to be 0.0734. Next, TAGCAACA: 0.0783.

With CTCGGAAC, the binding signal (normalized occupancy) was determined as 0.0709.

In the case of CAAATCCA, the binding signal (normalized occupancy) worked out at 0.0788.

As for TAACACAA, the binding signal (normalized occupancy) came to 0.0902. On to ACGAATCC, for which the binding signal (normalized occupancy) was 0.0802. On to TTGCCAAA, for which the binding signal (normalized occupancy) was 0.0718.

For the sequence ACTGTTAT, the binding signal (normalized occupancy) was determined as 0.0771. In the case of CAGCCTAC, the binding signal (normalized occupancy) amounted to 0.0736.

For CTAATGCC, the binding signal (normalized occupancy) is 0.0701. Next, CCGAACCA: 0.072. In the case of AAGTGGGA, the binding signal (normalized occupancy) was 0.0771. As to CGGACAGC, the binding signal (normalized occupancy) stood at 0.0666. As for ACTCTCAC, the binding signal (normalized occupancy) amounted to 0.0818. For ATGAACAC, the binding signal (normalized occupancy) worked out at 0.0828. With CCCCCTGA, the binding signal (normalized occupancy) was 0.0765. As to CTCGCACA, the binding signal (normalized occupancy) was 0.0834. Consider CTTCGATA, for which the binding signal (normalized occupancy) worked out at 0.0735.

ACTCACAG: the binding signal (normalized occupancy) amounted to 0.0738. Take TCTAACAA: the binding signal (normalized occupancy) was found to be 0.0753.

With CTCCGTCC, the binding signal (normalized occupancy) is 0.0682. With AATCATGA, the binding signal (normalized occupancy) came out at 0.0851.

For the sequence GGGCAGTA, the binding signal (normalized occupancy) stood at 0.0774. For ATGCGTTA, the binding signal (normalized occupancy) stood at 0.0896. For the sequence AGCGCCGC, the binding signal (normalized occupancy) amounted to 0.0654. Turning to AGGCTGGA, the binding signal (normalized occupancy) was 0.0721. For the sequence CTACTATA, the binding signal (normalized occupancy) turned out to be 0.079. Consider GAATCCTA, for which the binding signal (normalized occupancy) is 0.0741.

Turning to ATAGCCTA, the binding signal (normalized occupancy) stood at 0.0746. In the case of CATAACAG, the binding signal (normalized occupancy) stood at 0.0793. As for AACGTGCT, the binding signal (normalized occupancy) was 0.115. With CCGAAGAG, the binding signal (normalized occupancy) came out at 0.071. In the case of ACTGCGTA, the binding signal (normalized occupancy) was 0.0644.

With ACAGGCGT, the binding signal (normalized occupancy) worked out at 0.079.

Consider TGAGACAA, for which the binding signal (normalized occupancy) came to 0.0748.

GCAGAAAC: the binding signal (normalized occupancy) is 0.0734. As to ATACGGTC, the binding signal (normalized occupancy) came to 0.0765. In the case of CCATGTAC, the binding signal (normalized occupancy) came to 0.086. Next, CTGAACGA: 0.0737; ACTGAACG: 0.0736. With CACAGGGC, the binding signal (normalized occupancy) turned out to be 0.0742. With TATGCTCA, the binding signal (normalized occupancy) amounted to 0.0848. On to CCCCAGGA, for which the binding signal (normalized occupancy) is 0.0748.

Take CGGGGTCC: the binding signal (normalized occupancy) was 0.0731. For ACTTTCCC, the binding signal (normalized occupancy) was determined as 0.0751. Take CGACCTCC: the binding signal (normalized occupancy) was found to be 0.0746. With AAAGTCCG, the binding signal (normalized occupancy) was determined as 0.0687. For the sequence TCAGGCAA, the binding signal (normalized occupancy) came out at 0.0718. Next, ATTCTTTG: 0.0761; ACATTCGA: 0.0746.

As for CCTGCACC, the binding signal (normalized occupancy) amounted to 0.0718. Next, AACTAAAA: 0.0722. On to AGCTATAA, for which the binding signal (normalized occupancy) turned out to be 0.0785. Turning to ATAAACAC, the binding signal (normalized occupancy) was found to be 0.0841. In the case of CCCGACGA, the binding signal (normalized occupancy) came out at 0.0723. For the sequence AACCGGCT, the binding signal (normalized occupancy) was determined as 0.0674. Regarding AAGAACAA, the binding signal (normalized occupancy) came out at 0.0745. Take ATAAATAA: the binding signal (normalized occupancy) came to 0.0785. Next, AGCAGCAA: 0.0694; AGGAGTAT: 0.0782. Next, CATTGAGG: 0.0789; GTACACCA: 0.0824; AACATGTT: 0.0895.

For CAGGTACC, the binding signal (normalized occupancy) is 0.0695. Next, GAGCTCCA: 0.0721. Next, AAAAGCCA: 0.0705.
